Data from PubChem BioAssay AID651582 (Sanford-Burnham Center for Chemical Genomics, 2012).
The list shows a part of the results. Shown are side measurements of this screen, not its main read-out; they come without a call. Compounds called inactive in the main read-out are mostly missing here.

Test: TAG lipid buildup reduction in H9c2 cells – cell-based, uHTS, fluorescence, primary screen (AID 651582)
Settings: Nile Red lipid (TAG) fluorescence, measured here:, at 12.5 µM, cells loaded with 200 µM oleic acid

Structure (SMILES) | DAPI nuclei signal change (viability), lower = more cytotoxic
COc1ccc([C@H]2C[C@H](O)[C@@H](n3cc(-c4ccc(F)cc4)nn3)CN2Cc2cccs2)cc1 | -47%
COc1cc(OC)c2c(-c3ccccc3)cc(=O)oc2c1C(CCN1CCCC(C)C1)c1ccc(N(C)C)cc1 (stereo not given) | -7.21%
CCOc1ccc(-n2c(C)cc(C(=O)CCl)c2C)cc1 | -40%
CN(C)c1ccc(/C=C/c2ccc3c4ccccc4ccc3[n+]2-c2ccccc2)cc1 | -47.7%
Cc1nn2c(NCc3ccccn3)c3c(nc2c1-c1ccccc1)CCC3 | -32.1%
Cc1ccc(N=Nc2ccc(O)c3ncccc23)cc1 | -29%
COc1cc(CNC(=O)Nc2nc(C(N)Cc3ccc(Cl)cc3)cs2)cc(OC)c1OC (stereo not given) | 1.14%
CN(C)CCCNC(=O)C[C@H]1C[C@H](C(=O)N2CCCCC2)[C@@]2(CCc3ccccc3)c3[nH]c4cc(-c5ccco5)ccc4c3CCN2C1=O | -11.3%
O=C(Nc1ccc(-c2csc(Nc3cccc(C(F)(F)F)c3)n2)cc1)c1cc([N+](=O)[O-])cc(C(F)(F)F)c1 | -31.2%
O=C(N/N=C/c1cc([N+](=O)[O-])ccc1O)c1cccc2cc[nH]c12 | -21.9%
Cc1ccc(-c2ccc(/C=N\NC(=O)c3cc4c(ccc5ccccc54)o3)o2)cc1[N+](=O)[O-] | 8.77%
O=C(Nc1ccc(Cl)cc1)c1nc[nH]c1C(=O)NCCCCNC(=O)c1[nH]cnc1C(=O)Nc1ccc(Cl)cc1 | -25.4%
O=C(Nc1nc(-c2ccccc2)cs1)C1CCCN(S(=O)(=O)c2cccc([N+](=O)[O-])c2)C1 (stereo not given) | -5.09%
c1ccc(N=Nc2ccc3cccccc2-3)cc1 | -34.8%
CCc1ccc2nc(SCC(=O)N3CC(=O)Nc4ccccc43)c(C#N)cc2c1 | -31%
COc1ccc(C(C(=O)NC(C)(C)C)N(CC2CCCO2)C(=O)CCC(=O)Nc2cc(C)on2)cc1 (stereo not given) | -4.41%
COc1cc(C#Cc2c(-c3cncn3C)n(C)c3ccc(-c4ccc5cc[nH]c5c4)cc23)cc(OC)c1 | 63.3%
O=C(CCl)N(C/C=C/c1ccccc1)c1ccc2c(c1)OCCO2 | -22.5%
Cc1cc(Nc2ccc(C)c(Cl)c2)nc(N2CCOCC2)n1 | -38.3%
c1ccc(N=NC2=NN(c3ccccc3)CS2)cc1 | -15.1%

Structure (SMILES) | DAPI nuclei signal change (viability), lower = more cytotoxic
CCOC(=O)C(C)Oc1cccc2c(=O)n(CC(=O)NCc3ccc4c(c3)OCO4)ccc12 (stereo not given) | -24.6%
Cc1nn(-c2ccccc2)c2c1CC(=O)Nc1ccccc1-2 | -28.5%
CC(C)CN(C#N)c1nc(N2CCOCC2)nc(N2CCOCC2)n1 | -6.64%
CC(C)CC(N)c1csc(NC(=O)Nc2ccccc2Cc2ccccc2)n1 (stereo not given) | -43.8%
COc1cc(C2C3=C(COC3=O)Oc3cc4c(cc32)OCO4)ccc1O (stereo not given) | -37.6%
C[C@@]12C(=O)Nc3ccc(Br)cc3C(=O)N1[C@H]1c3cc(Br)ccc3OC[C@@H]1[C@@H]2c1ccccc1 | -23.7%
CCOC(=O)c1c(CSC(=N)N)n(-c2ccc(C)cc2)c2cc(Br)c(OC(C)=O)cc12 | -7.23%
Cc1ccc(-c2nc(NC(=O)c3cc(C(C)(C)C)nn3C)sc2C)cc1Cl | -25.7%
O=C(c1ccoc1)N1CCN(c2cc(-c3ccncc3)nc3cc(-c4cccc(Cl)c4)nn23)CC1 | 43.1%
CCN1CCN(Cc2ccc(NC(=O)c3ccc(C)c(NC(=O)c4cncc(-c5cccs5)c4)c3)cc2C(F)(F)F)CC1 | -49.3%
COc1cc(OC)nc(Nc2nc(C(N)Cc3ccc(Cl)cc3)cs2)n1 (stereo not given) | -29.8%
O=C(NCC1CC1)c1onc(CSc2ccncc2)c1C(=O)NCC1CC1 | -35.2%
Cc1ccccc1NC(=O)CSc1nc(Nc2ccccc2)nc(N2CCOCC2)n1 | -17.9%
CC(C)C[C@H]1CN=C(Nc2ccccc2)N1CC1CCC(C(C)(C)C)CC1 (stereo not given in full) | -18.5%
O=C(Nc1ccc2oc(-c3cccnc3)nc2c1)c1cc2ccccc2o1 | -12.3%
O=C(Cn1cc[n+](CC(=O)c2ccc(Cl)cc2Cl)c1)c1ccc(Cl)cc1Cl | -27.2%
CN1CCN(c2ccc(Cl)cc2NC(=O)c2nn(-c3ccccc3)c(=O)c3ccccc23)CC1 | -7.4%
COc1ccc(OC)c(N(CCN2C(=O)c3ccccc3C2=O)C(=O)CCl)c1 | -12.9%
COc1ccc(NC(=S)N(CCCN2CCCC2)Cc2cccn2Cc2ccc(Cl)cc2)cc1Cl | -18.4%
Cc1ccc(NC(=O)CSc2nnc(C)c(=O)n2N)cc1Cl | -7.96%

Structure (SMILES) | DAPI nuclei signal change (viability), lower = more cytotoxic
COCCNC(=O)c1cc2c(-c3ccc(Cl)cc3)nn(C)c2s1 | -4.73%
COc1cc(NC(=O)Nc2nc(C(N)CCc3ccccc3)cs2)cc(OC)c1OC (stereo not given) | -1.63%
CNC[C@H](Cc1ccccc1)NC[C@@H](Cc1cccc2ccccc12)NCCc1ccc(C)cc1 | 0.35%
O=C(CC1C[C@H](C(=O)N2CCOCC2)[C@@]2(CCC3CCCC3)c3[nH]c4ccccc4c3CCN2C1=O)NCC12CC3CC(CC(C3)C1)C2 (stereo not given in full) | -16%
CC1=C/C(=N\NC(=S)Nc2cccnc2)CC(C)(C)C1 | -44.1%
O=C(CCl)N=c1sccn1Cc1ccc(Cl)cc1Cl | -21.4%
CC(C)C[C@H]1CNC(=S)N1CC1CCCN1C[C@H](CC(C)C)N1C[C@H](CC(C)C)N(CC2CCCCCC2)C1=S (stereo not given in full) | -16.2%
COc1cc2c(cc1NC(=O)CN1C(=O)NC3(CCc4ccccc43)C1=O)oc1ccccc12 (stereo not given) | 0.786%
CCN(CC)CCC(=O)N1C/C(=C/c2ccccc2)C(=O)/C(=C\c2ccccc2)C1 | -40.4%
O=C(Nc1nc(-c2ccc(S(=O)(=O)N3CCCCCC3)cc2)cs1)c1cccs1 | -11.2%
O=C(COC(=O)c1cc([N+](=O)[O-])ccc1N1CCOCC1)Nc1ccc(Cl)cn1 | -11%
CC(=NNc1nc2ccccc2s1)c1ccncn1 | -24.8%
COCCN1Cc2cccc(C(=O)Nc3cccc(-c4nc5ccccc5[nH]4)c3)c2C1=O | -4.56%
CCn1c(SCC(=O)Nc2nc(-c3ccc(C)cc3)cs2)nnc1-c1ccccc1O | -7.79%
CCCCOc1ccc(CSC2=NCCN2)cc1[N+](=O)[O-] | -31.8%
Nc1ccc2ccccc2c1N=Nc1ccccc1 | -12.1%
Oc1c(C(c2ccccn2)N2CCCCC2)cc(Cl)c2cccnc12 (stereo not given) | -45%
COc1ccc(-c2cnc3c(NC=O)cc(-c4cccc(NS(C)(=O)=O)c4)cn23)cc1OC | -46.4%
NC(Cc1ccc(F)cc1)c1csc(Nc2ccc(C(F)(F)F)cn2)n1 (stereo not given) | -42%
COc1cc2c3c(c1)c(C1=NC(=S)NC1=O)c(O)n3C(C)(C)C=C2C | -7.52%
